# The supplement of paper PMC8728848
# Some of the results follow.
# B1: ZG16p (Homo sapiens), O60844 (protein)
# chain: ARSSSYSGEYGGGGGKRFSHSGNQLDGPITALRVRVNTYYIVGLQVRYGKVWSDYVGGRNGDLEEIFLHPGESVIQVSGKYKWFLKKLLFVTDKGRYLSFGKDSGTSFNAVPLHPNTVLRFISGRSGSLIDAIGLHWDVYPSSCSRC
# Key:
# Experiment in all cases: glycan array binding signal (z-score within array); higher = stronger binding
# Settings in all cases: glycan notation: IUPAC condensed, linker removed; mutation: Y104F
# [1] = target: Gal(b1-4)GlcNAc(b1-2)Man(a1-3)[Gal(b1-4)GlcNAc(b1-2)Man(a1-6)]Man(b1-4)GlcNAc(b1-4)GlcNAc
# In short: (§1)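 Glycan array binding is given as a within-array Z-score, which can be read as non-binding when negative. The arrays, 3228 of them, came from the Consortium for Functional Glycomics database and were retained only where the protein sequence was available. Z-scores were averaged across arrays of the same protein sequence at different concentrations or buffers and across linkers.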
# [2] = target: Gal(b1-4)GlcNAc(b1-2)Man(a1-3)[Gal(b1-4)GlcNAc(b1-2)Man(a1-6)]Man(b1-4)GlcNAc(b1-4)[Fuc(a1-6)]GlcNAc
# In short: as §1
# [3] = target: Gal(b1-4)GlcNAc(b1-2)Man(a1-3)[Gal(b1-4)GlcNAc(b1-2)Man(a1-6)][GlcNAc(b1-4)]Man(b1-4)GlcNAc(b1-4)[Fuc(a1-6)]GlcNAc
# In short: as §1
# [4] = target: Gal(b1-4)GlcNAc(b1-2)Man(a1-3)[Man(a1-6)]Man(b1-4)GlcNAc(b1-4)GlcNAc
# In short: as §1
# [5] = target: Gal(b1-4)GlcNAc(b1-2)Man(a1-6)[GlcNAc(b1-2)Man(a1-3)]Man(b1-4)GlcNAc(b1-4)[Fuc(a1-6)]GlcNAc
# In short: as §1
# [6] = target: Gal(b1-4)GlcNAc(b1-2)Man(a1-6)[Man(a1-3)]Man(b1-4)GlcNAc(b1-4)GlcNAc
# In short: as §1
# [7] = target: Gal(b1-4)GlcNAc(b1-2)Man(a1-6)[Man(a1-3)]Man(b1-4)GlcNAc(b1-4)[Fuc(a1-6)]GlcNAc
# In short: as §1
# [8] = target: Gal(b1-4)GlcNAc(b1-2)[Gal(b1-4)GlcNAc(b1-4)]Man(a1-3)[Fuc(a1-3)[Gal(b1-4)]GlcNAc(b1-2)Man(a1-6)]Man(b1-4)GlcNAc(b1-4)GlcNAc
# In short: as §1
# [9] = target: Gal(b1-4)GlcNAc(b1-2)[Gal(b1-4)GlcNAc(b1-4)]Man(a1-3)[Gal(b1-4)GlcNAc(b1-2)[Gal(b1-4)GlcNAc(b1-6)]Man(a1-6)]Man(b1-4)GlcNAc(b1-4)GlcNAc
# In short: as §1
# [10] = target: Glc(a1-2)Glc(a1-3)Glc(a1-3)Man(a1-2)Man(a1-2)Man(a1-3)[Man(a1-2)Man(a1-3)[Man(a1-2)Man(a1-6)]Man(a1-6)]Man(b1-4)GlcNAc
# In short: as §1
# [11] = target: Glc(a1-2)Glc(a1-3)Glc(a1-3)Man(a1-2)Man(a1-2)Man(a1-3)[Man(a1-3)[Man(a1-6)]Man(a1-6)]Man(b1-4)GlcNAc
# In short: as §1
# [12] = target: Glc(a1-3)Glc(a1-3)Man(a1-2)Man(a1-2)Man(a1-3)[Man(a1-2)Man(a1-3)[Man(a1-2)Man(a1-6)]Man(a1-6)]Man(b1-4)GlcNAc(b1-4)GlcNAc
# In short: as §1
# [13] = target: Glc(a1-3)Glc(a1-3)Man(a1-2)Man(a1-2)Man(a1-3)[Man(a1-3)[Man(a1-6)]Man(a1-6)]Man(b1-4)GlcNAc
# In short: as §1
# [14] = target: Glc(a1-3)Man(a1-2)Man(a1-2)Man(a1-3)[Man(a1-2)Man(a1-3)[Man(a1-2)Man(a1-6)]Man(a1-6)]Man(b1-4)GlcNAc(b1-4)GlcNAc
# In short: as §1
# [15] = target: Glc(a1-6)Glc(a1-6)Glc(a1-6)Glc(a1-6)Glc(a1-6)Glc
# In short: as §1
# [16] = target: Glc(b1-3)Glc(b1-3)Glc(b1-3)Glc(b1-3)Glc(b1-3)Glc
# In short: as §1
# [17] = target: Glc(b1-6)Glc(b1-6)Glc(b1-6)Glc(b1-6)Glc(b1-6)Glc
# In short: as §1
# [18] = target: GlcA(b1-3)GlcNAc(b1-4)GlcA(b1-3)GlcNAc(b1-4)GlcA(b1-3)GlcNAc(b1-4)GlcA(b1-3)GlcNAc(b1-4)GlcA(b1-3)GlcNAc(b1-4)GlcA(b1-3)GlcNAc(b1-4)GlcA(b1-3)GlcNAc(b1-4)GlcA(b1-3)GlcNAc
# In short: as §1
# [19] = target: GlcNAc(b1-2)Man(a1-3)[GlcNAc(b1-2)Man(a1-6)]Man(b1-4)GlcNAc(b1-4)GlcNAc
# In short: as §1
# [20] = target: GlcNAc(b1-2)Man(a1-3)[GlcNAc(b1-2)Man(a1-6)]Man(b1-4)GlcNAc(b1-4)[Fuc(a1-6)]GlcNAc
# In short: as §1
# [21] = target: GlcNAc(b1-2)Man(a1-3)[GlcNAc(b1-2)Man(a1-6)][GlcNAc(b1-4)]Man(b1-4)GlcNAc(b1-4)GlcNAc
# In short: as §1
# [22] = target: GlcNAc(b1-2)Man(a1-3)[Man(a1-3)[Man(a1-6)]Man(a1-6)][GlcNAc(b1-4)]Man(b1-4)GlcNAc(b1-4)GlcNAc
# In short: as §1
# [23] = target: GlcNAc(b1-2)[GlcNAc(b1-4)]Man(a1-3)[GlcNAc(b1-2)Man(a1-6)][GlcNAc(b1-4)]Man(b1-4)GlcNAc(b1-4)GlcNAc
# In short: as §1
# [24] = target: GlcNAc(b1-2)[GlcNAc(b1-4)]Man(a1-3)[GlcNAc(b1-2)[GlcNAc(b1-4)][GlcNAc(b1-6)]Man(a1-6)][GlcNAc(b1-4)]Man(b1-4)GlcNAc(b1-4)GlcNAc
# In short: as §1
# [25] = target: GlcNAc(b1-2)[GlcNAc(b1-4)]Man(a1-3)[GlcNAc(b1-2)[GlcNAc(b1-6)]Man(a1-6)]Man(b1-4)GlcNAc(b1-4)GlcNAc
# In short: as §1
# [26] = target: HexA(a1-3)GalNAc4S(b1-4)GlcA(b1-3)GalNAc4S(b1-4)GlcA(b1-3)GalNAc4S(b1-4)GlcA(b1-3)GalNAc4S(b1-4)GlcA(b1-3)GalNAc4S(b1-4)GlcA(b1-3)GalNAc4S(b1-4)GlcA(b1-3)GalNAc4S(b1-4)GlcA(b1-3)GalNAc4S
# In short: as §1
# [27] = target: HexA(a1-3)GalNAc4S(b1-4)IdoA(a1-3)GalNAc4S(b1-4)IdoA(a1-3)GalNAc4S(b1-4)IdoA(a1-3)GalNAc4S(b1-4)IdoA(a1-3)GalNAc4S(b1-4)IdoA(a1-3)GalNAc4S(b1-4)IdoA(a1-3)GalNAc4S(b1-4)IdoA(a1-3)GalNAc4S
# In short: as §1
# [28] = target: HexA(a1-3)GalNAc6S(b1-4)GlcA(b1-3)GalNAc6S(b1-4)GlcA(b1-3)GalNAc6S(b1-4)GlcA(b1-3)GalNAc6S(b1-4)GlcA(b1-3)GalNAc6S(b1-4)GlcA(b1-3)GalNAc6S(b1-4)GlcA(b1-3)GalNAc6S(b1-4)GlcA(b1-3)GalNAc6S
# In short: as §1
# [29] = target: HexA2S(a1-4)GlcNS6S(a1-4)IdoA2S(a1-4)GlcNS6S(a1-4)IdoA2S(a1-4)GlcNS6S(a1-4)IdoA2S(a1-4)GlcNS6S(a1-4)IdoA2S(a1-4)GlcNS6S(a1-4)IdoA2S(a1-4)GlcNS6S(a1-4)IdoA2S(a1-4)GlcNS6S(a1-4)IdoA2S(a1-4)GlcNS6S(a1-4)IdoA2S
# In short: as §1
# Man(a1-2)Man = target: Man(a1-2)Man
# In short: as §1
binder,measurement,setting,value
B1,glycan array binding signal (z-score),[1],-0.485
same,glycan array binding signal (z-score),[2],-0.485
same,glycan array binding signal (z-score),[3],-0.485
same,glycan array binding signal (z-score),[4],-0.424
same,glycan array binding signal (z-score),[5],-0.485
same,glycan array binding signal (z-score),[6],-0.485
same,glycan array binding signal (z-score),[7],-0.369
same,glycan array binding signal (z-score),[8],-0.485
same,glycan array binding signal (z-score),[9],-0.415
same,glycan array binding signal (z-score),[10],-0.392
same,glycan array binding signal (z-score),[11],0.026
same,glycan array binding signal (z-score),[12],-0.135
same,glycan array binding signal (z-score),[13],-0.101
same,glycan array binding signal (z-score),[14],-0.485
same,glycan array binding signal (z-score),[15],-0.289
same,glycan array binding signal (z-score),[16],2.84
same,glycan array binding signal (z-score),[17],-0.073
same,glycan array binding signal (z-score),[18],-0.485
same,glycan array binding signal (z-score),[19],-0.485
same,glycan array binding signal (z-score),[20],-0.485
same,glycan array binding signal (z-score),[21],-0.417
same,glycan array binding signal (z-score),[22],-0.485
same,glycan array binding signal (z-score),[23],-0.485
same,glycan array binding signal (z-score),[24],-0.485
same,glycan array binding signal (z-score),[25],-0.485
same,glycan array binding signal (z-score),[26],-0.298
same,glycan array binding signal (z-score),[27],0.634
same,glycan array binding signal (z-score),[28],-0.066
same,glycan array binding signal (z-score),[29],2.51
same,glycan array binding signal (z-score),Man(a1-2)Man,-0.062
